Holding throughout (assay): BLI steady-state
The target in experiment [1] is T1, Fc portion of human IgG1-fused LGR5-ECD (R&D systems) (UniProt O75473 22-557).
T1 chain: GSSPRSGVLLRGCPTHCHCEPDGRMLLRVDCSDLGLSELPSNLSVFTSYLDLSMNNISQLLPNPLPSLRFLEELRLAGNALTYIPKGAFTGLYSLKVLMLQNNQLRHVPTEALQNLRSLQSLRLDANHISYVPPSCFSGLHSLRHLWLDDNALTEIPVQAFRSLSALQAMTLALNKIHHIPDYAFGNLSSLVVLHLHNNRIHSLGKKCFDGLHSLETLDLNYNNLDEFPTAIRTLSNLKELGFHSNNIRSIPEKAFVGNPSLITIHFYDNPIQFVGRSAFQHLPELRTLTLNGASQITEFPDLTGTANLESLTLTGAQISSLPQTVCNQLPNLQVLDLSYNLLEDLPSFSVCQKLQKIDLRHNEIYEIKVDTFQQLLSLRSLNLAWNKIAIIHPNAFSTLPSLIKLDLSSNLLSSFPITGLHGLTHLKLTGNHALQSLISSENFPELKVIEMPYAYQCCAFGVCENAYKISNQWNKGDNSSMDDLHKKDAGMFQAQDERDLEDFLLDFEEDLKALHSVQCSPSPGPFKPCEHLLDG

Experiment [2] concerns the target T2, human RNF43 extracellular domain (hRNF43 ECD) (UniProt Q68DV7 44-197, biotinylated (His-Avi tag)).
T2 chain: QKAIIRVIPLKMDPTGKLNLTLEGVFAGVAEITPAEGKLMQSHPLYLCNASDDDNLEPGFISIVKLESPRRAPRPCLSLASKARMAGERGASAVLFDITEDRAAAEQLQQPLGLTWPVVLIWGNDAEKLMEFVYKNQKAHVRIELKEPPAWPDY

Experiment [3] has as its target T3, human ZNRF3 extracellular domain (hZNRF3 ECD) (UniProt Q9ULT6 56-219, biotinylated (His-Avi tag)).
T3 chain: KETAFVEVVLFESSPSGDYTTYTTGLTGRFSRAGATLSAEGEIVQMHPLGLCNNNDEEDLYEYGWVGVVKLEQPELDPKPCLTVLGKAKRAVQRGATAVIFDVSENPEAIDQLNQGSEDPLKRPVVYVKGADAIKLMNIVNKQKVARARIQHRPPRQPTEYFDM

B1: αASGR1-RSPO2-WT (anti-ASGR1, RSPO2 wild type) (other)
chain: [letters of about 100 residues omitted]DFSSRRWYLEYWGQGTLVTVSSGGGGSGGGGSGGGGSELTQDPAVSVALGQTVRITCQGDSLRSYYASWYQQKPGQAPVLVIYGKNNRPSGIPDRFSGSSSGNTASLTITGAQAEDEADYYCNSLERIGYLSYVFGGGTKLTVLGSGGSNPICKGCLSCSKDNGCSRCQQKLFFFLRREGMRQYGECLHSCPSGYYGHRAPDMNRCARCRIENCDSCFSKDFCTKCKVGFYLHRGRCFDECPDGFAPLEETMECVEGGDYKDDDDKGSHHHHHHHH
What is called Kd is the free concentration of one partner at which half of the binding sites on the other are occupied at equilibrium, for simple one-to-one binding. Read a high Kd as a looser complex. Regarding B1, the Kd in experiment [1] stood at 6.5 nM; in experiment [2], 22 nM; in experiment [3], 51 nM.
